Results as given in the GPR68 mutational scans of Howard et al. (2025).
Scores with a large standard error are left out. The source holds two more conditions with little spread; they are left out. In variant names, del marks residues removed and ins residues inserted between the two positions. For some of these results: How much ogerin was present is not stated here.

B1: GPR68, Q15743 (parent)
chain: MGNITADNSSMSCTIDHTIHQTLAPVVYVTVLVVGFPANCLSLYFGYLQIKARNELGVYLCNLTVADLFYICSLPFWLQYVLQHDNWSHGDLSCQVCGILLYENIYISVGFLCCISVDRYLAVAHPFRFHQFRTLKAAVGVSVVIWAKELLTSIYFLMHEEVIEDENQHRVCFEHYPIQAWQRAINYYRFLVGFLFPICLLLASYQGILRAVRRSHGTQKSRKDQIQRLVLSTVVIFLACFLPYHVLLLVRSVWEASCDFAKGVFNAYHFSLLLTSFNCVADPVLYCFVSETTHRDLARLRGACLAFLTCSRTGRAREAYPLGAPEASGKSGAQGEEPELLTKLHPAFQTPNSPGSGGFPTGRLA

Legend:
[1] = variants of: B1; test: cAMP reporter score (Enrich2 score, wild type = 0); higher = more signal; HEK293T, FACS bins
[2] = variants of: B1; test: surface expression score (Enrich2 score, wild type = 0); higher = more signal; HEK293T, FACS bins

Variant | cAMP reporter score ([1]; pH 5.5) | cAMP reporter score ([1]; pH 6) | cAMP reporter score ([1]; pH 6, modulator: ogerin) | cAMP reporter score ([1]; pH 6.5, modulator: ogerin) | surface expression score [2]
L150_T152del | -1.54 | -0.96 | -1.62 | -1.31 | -2.04
A137del | -0.862 | -0.181 | -3.03 | -1.3 | 0.738
E149_L150insGS | -2.37 |  |  | -1.31 | -1.66
K148del | -1.5 | -1.27 | -1.86 | -1.16 | -1.81
L150_L151del | -1.7 | -1.5 | -1.89 | -1.47 | -2.21
A138Q | -1.63 | 0.264 | -0.642 | -0.444 | 0.473
A138G | -1.2 | -0.947 | -1.35 | -1.11 | -2.1
A138C | -1.43 | -1.18 | -0.671 | -1.36 | -2.53
A138F | -0.776 | -0.392 | -0.642 | -1.52 | -2.55
A138Y | -2.9 | -1.34 | -1.56 | -0.859 | -1.5
A138W | -2.5 | -1.18 | -2.14 | -0.595 | -2.45
A138I | -0.676 | -1.3 |  |  | -1.78
A138N | -2.06 |  | -1.37 | -1.78 | -2.12
A138V | -1.3 |  |  | -0.51 | -1.24
A138E | -0.09 | -0.459 |  |  | 
A138P | -2.09 |  |  | -0.472 | -0.737
A138R | -0.418 | -0.822 |  | -0.432 | 
A138S | -0.355 | 0.027 | -0.781 | -0.803 | -1.19
A138D | -1.07 | -1.18 | -1.56 | -1.26 | -2.03
L150_L151insG | -0.124 | -2.02 |  | -1.49 | -0.83
K136_A138del | -0.771 | -0.841 | -0.703 | -1.09 | -1.93
L151_S153del | -1.32 | -0.455 | -1.74 | -1.26 | -2.11
G140_S142del | -1.2 | -1.07 | -1.91 | -1.22 | -2.55

Variant | cAMP reporter score ([1]; pH 5.5) | cAMP reporter score ([1]; pH 6) | cAMP reporter score ([1]; pH 6, modulator: ogerin) | cAMP reporter score ([1]; pH 6.5, modulator: ogerin) | surface expression score [2]
G140_V141insG | -2.07 | -1.12 | -2.15 | -1.21 | -2.78
A138_V139insG | -1.94 | -1.26 | -2.55 | -1.51 | -2.19
I145_W146insGSG | -1.3 | -0.898 | -1.38 | -1.04 | -2.63
G140_V141del | -2.12 | -1.25 | -1.67 | -1.38 | -2.52
W146_A147insG | -1.19 |  | -0.507 |  | 
E149_L150insGSG | -2.39 |  |  | -2 | -3.33
K136H | -0.408 |  | -0.688 | -1.24 | 
K136W | -1.53 | -0.932 | -1.26 | -1.29 | -2.04
K136R | -0.382 |  | -0.333 | 0.005 | -0.694
K136D | -2.01 | -0.579 |  | -1.46 | 
K136P | -0.809 | -0.529 | -0.801 | -0.597 | -1.81
K136V | -0.404 | -1.12 | -1.27 | -1.03 | -2.78
K136Y | -2.08 |  | -0.636 | -1.04 | -1.64
K136T | 2.5 |  | 0.627 |  | 
K136F | -1.2 | -1.63 | -0.811 | -0.468 | -2.24
K136L | -1.95 | -0.872 | -2.09 |  | -2.76
K136I | 0.258 |  |  | -1.75 | -2.11
K136S | -0.351 | -0.306 | -0.375 | -0.284 | -1.64
K136G | -0.164 | -0.552 | -0.156 | -0.945 | -0.715
K136E | -0.709 | 0.118 | 0.358 | 0.248 | -0.982
K136M | -0.661 | 0.523 | -1.08 | -0.878 | -0.914
K136N | -0.565 | -0.642 | -0.563 | 0.147 | -2.69
K136C | -0.431 |  | -0.652 | -0.395 | 

Variant | cAMP reporter score ([1]; pH 5.5) | cAMP reporter score ([1]; pH 6) | cAMP reporter score ([1]; pH 6, modulator: ogerin) | cAMP reporter score ([1]; pH 6.5, modulator: ogerin) | surface expression score [2]
K136del | -1.24 | -1.01 | -0.625 | -1 | -2.25
A137_A138insGSG | -1.37 |  | -1.27 | -2.06 | -2.35
V139_G140del | -1.4 | -1.36 | -1.48 | -1.12 | -2.79
G140_V141insGS | -1.86 | -1.24 | -1.53 | -1.45 | -2.52
V139_V141del | -1.79 | -0.457 | -1.99 | -1.32 | -2.74
A147_K148insG | -0.771 | -0.765 | -0.973 | -0.477 | -2.88
A147V | 1.35 |  | 1 | 0.94 | 1.09
A147G | -0.202 | -0.627 | 0.497 | -1.77 | -0.779
A147H | -1.39 | -0.919 | -1.61 | -1.38 | -2.42
A147Y | -1 |  |  | -1.57 | -2.93
A147Q | -0.411 |  | -2.64 | -2.08 | -2.51
A147S | 0.174 | -0.31 | 0.301 | 0.872 | -0.241
A147C | 1.46 | 0.609 | 1.85 | 1.57 | 1.5
A147N | 0.548 | -1.51 | -1.57 | -0.937 | -0.609
A147E | -0.957 | -1.45 |  |  | 
A147P | -1.75 |  | -1.12 | -1.18 | -2.5
A147L | -0.267 | -0.292 | 0.131 | 0.387 | -0.815
A147K | -1.88 | -0.657 | -0.469 | -1.9 | -1.78
A147D | -1.51 | -0.49 |  | -1.24 | -3.24
A147I | 0.795 | 0.132 | 1.19 | -0.247 | 0.786
A147T | -0.511 | -0.586 | -0.002 | 0.029 | 0.198
A147F | 0.801 |  | -0.6 | -1.34 | 0.035
